# Source: the supplement of paper PMC11369174, “Proteome-scale characterisation of motif-based interactome rewiring by disease mutations” (Molecular Systems Biology, 2024)
# The other results are listed elsewhere or left out. This is a noisy data set.
# B1: S12C S12C (peptide)
# chain: MASSTPSSSATSSNAGADPNCTNLRPTTYDTW
# B2: Q27E Q27E (peptide)
# chain: VEAQQSHGSSACSQPHGSVTESQGSSSQSQGISSSSTSTMP
# B3: G741R G741R (peptide)
# chain: PAKFDQIEQFNDHMRMHVSDR
# B4: P497S P497S (peptide)
# chain: TPGVGVGVLGTAIGPVGPVTSIGPIGPIVPFTPIGPIGPIG
# B5: V12M V12M (peptide)
# chain: MSSSNVEVFIPVSQGNTNGFMATASNDLKAFT
# B6: S377G S377G (peptide)
# chain: SSEEMRPIKTEPGLSSHYGHGSSVSQTFSVSAMSGHGPSIH
# B7: G435R G435R (peptide)
# chain: QRIYFDLDPTGQFLVSGSTSRAVSVWDTDGPGNDGKPEPVL
# B8: R1261G R1261G (peptide)
# chain: RLTGLLDREVQAGRQALAAAGGSWGPGPSSLTVPAIVVDEE
# B9: Q248E Q248E (peptide)
# chain: ITESRPTPAPTATPTAPSPLEATAGPSYPRPVIPPVSTPGQ
# B10: P245A P245A (peptide)
# chain: SSTESSPQGSPEPLVLHEETAPTTSSDSEEEQEDEEEIDVV
# B11: T338A T338A (peptide)
# chain: HLTVGQAAAGGSGNLLTERSAFTDSQLGNADMEMTLERAVS
# B12: S2158L S2158L (peptide)
# chain: GNTSSLNPLAVGFVQTPPVILSAHIQDERVLEQAEGKVEEP
# B13: L2487V L2487V (peptide)
# chain: MQGVELQPRLSGSDLGGHSSVLERLEKIIREQGDLQEKSLE
# B14: T163M T163M (peptide)
# chain: FSEKLRASTVMYHPEGESSTMPFFSTNSSLNLPVLEVGRTE
# B15: Q655H Q655H (peptide)
# chain: KYPRPSSVPPSPSGSQASSPHSSDVEDEVEDERYDEEEEAE
# B16: E32742Q E32742Q (peptide)
# chain: PMFKRLLANAECQEGQSVCFQIRVSGIPPPTLKWEKDGQPL
# B17: R32814C R32814C (peptide)
# chain: RVTATNTAGSTSCQAHLQVECLRYKKQEFKSKEEHERHVQK
# B18: R30Q R30Q (peptide)
# chain: SGSHLSNSFAEPSRSNGSMVQHSSSPYVVYPSDKPFLNSDL
# B19: S573L S573L (peptide)
# chain: DEDEDGDDLLHHHHGSHCSSLGDPAEYNLRSRTVLCGTCGQ
# B20: T62P T62P (peptide)
# chain: PGRPCTRLQPAGSVSSTPLSPPCSSVPSSPSFSPTEQKTHL
# B21: P297L P297L (peptide)
# chain: PSGMRSLAEPGCPTHGSAESLSTAASPTTSVSSLTERADTG
# B22: S519N S519N (peptide)
# chain: KPKLKAGGSVESLRSSLSGQNSMSGQTVSTTDSSTSNRESV
# B23: R1062W R1062W (peptide)
# chain: SSELSTPEKPPHQRAGPFSSWWETTMGEASASIPTTVGSLP
# B24: G1549S G1549S (peptide)
# chain: TSPMMDVPSVSDHSQQVVDSSFSDLGSIESTTENYENPSSY
# Molecular target: USP7_MATH-TRAF__Q93009_53_206
# Experiment: mutation enrichment score (mutant vs wild-type peptide binding to bait); baits are purified protein domains named by gene / domain / UniProt id / residues; peptides come from disordered regions of human proteins; higher = mutation enhances binding relative to wild type
# Details: wild-type window: …
# [1] = number of wild-type / mutant comparisons summed (bounds the score): 5, paper call: no_effect
# [2] = number of wild-type / mutant comparisons summed (bounds the score): 10, paper call: no_effect
# [3] = number of wild-type / mutant comparisons summed (bounds the score): 10, paper call: enhanced
# Sequence of USP7_MATH-TRAF__Q93009_53_206 (chain, as listed by the source): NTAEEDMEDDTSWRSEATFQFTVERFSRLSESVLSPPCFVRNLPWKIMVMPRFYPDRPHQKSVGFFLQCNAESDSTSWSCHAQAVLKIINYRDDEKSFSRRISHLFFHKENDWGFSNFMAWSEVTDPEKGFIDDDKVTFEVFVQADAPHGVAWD
binder,measurement,setting,value
B1,mutation enrichment score,[1],1.2
B2,mutation enrichment score,[2],3
B3,mutation enrichment score,[1],-2
B4,mutation enrichment score,[1],3
B5,mutation enrichment score,[1],-1.3
B6,mutation enrichment score,"number of wild-type / mutant comparisons summed (bounds the score): 10, paper call: diminished",-4.2
B7,mutation enrichment score,[1],-2
B8,mutation enrichment score,[1],4
B9,mutation enrichment score,[2],2
B10,mutation enrichment score,[2],-2
B11,mutation enrichment score,[1],-2.9
B12,mutation enrichment score,[1],-3
B13,mutation enrichment score,[2],-4
B14,mutation enrichment score,[2],1
B15,mutation enrichment score,[3],4.8
B16,mutation enrichment score,[1],3
B17,mutation enrichment score,[1],2
B18,mutation enrichment score,[3],5.1
B19,mutation enrichment score,[2],-5
B20,mutation enrichment score,[1],2
B21,mutation enrichment score,[2],-3.2
B22,mutation enrichment score,[2],-5
B23,mutation enrichment score,[1],1.6
B24,mutation enrichment score,[1],3
